# Results reported in PubChem BioAssay AID485344 (National Center for Advancing Translational Sciences (NCATS), 2010).
# Out of some 340,000 compounds screened, about 6,900 (2%) were called active. No stated cut-off is given here; in the data, active means inhibition above about 30%; inactive means below that, where a call was filed. The list shows a part of the results, in another mix than the full data. Entries without a call were filed so in the source.
# Molecular target: D(2) dopamine receptor (Homo sapiens) (UniProt P14416)
# Test: HTS Assay for Allosteric Antagonists of the Human D2 Dopamine Receptor: Primary Screen for Antagonists; further: 0% is about no effect
# Details: HEK293 TREx D2 cells, calcium flux, dopamine EC80; at 10 µM; stronger effect = higher value
# Procedure, shortened: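 Calcium flux kinetic readout in an inducible HEK293 TREx D2 line plated overnight at 30 C. After 180 s compound exposure, an EC80 dopamine challenge follows with another 180 s kinetic read to detect antagonism.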
# UniProt P14416, sequence (P14416 whole entry, looked up): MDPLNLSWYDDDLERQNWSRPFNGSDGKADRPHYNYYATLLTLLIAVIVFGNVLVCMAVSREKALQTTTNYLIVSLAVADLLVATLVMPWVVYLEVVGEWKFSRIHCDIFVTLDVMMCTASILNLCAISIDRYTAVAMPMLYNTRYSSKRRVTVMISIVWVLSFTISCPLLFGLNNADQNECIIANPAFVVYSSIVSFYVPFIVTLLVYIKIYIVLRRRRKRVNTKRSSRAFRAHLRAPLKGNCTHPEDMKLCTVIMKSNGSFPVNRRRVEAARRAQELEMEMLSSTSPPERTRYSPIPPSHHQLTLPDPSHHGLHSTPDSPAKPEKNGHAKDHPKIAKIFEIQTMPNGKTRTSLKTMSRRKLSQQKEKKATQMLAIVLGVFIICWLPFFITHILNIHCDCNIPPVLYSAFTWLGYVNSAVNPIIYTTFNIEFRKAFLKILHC
row,SMILES,inhibition
1,O=C(CCCCn1c(=O)c2ccccc2n(Cc2ccccc2Cl)c1=O)NCCc1ccccc1,9.45%
2,Cc1csc2nc(COC(=O)c3cccc(NC(=O)COc4ccc(Cl)cc4)c3)cc(=O)n12,-1.46%
3,CCc1nnc(SCC(=O)Nc2ccccc2Cl)nc1CC,-17.7%
4,CN(CC(=O)NC1CCN(Cc2ccccc2)CC1)S(=O)(=O)c1ccc(Cl)s1,active: 68.5%
5,CCc1ccc(NCc2cc3cc4c(cc3n(CC(=O)Nc3cccc(OC)c3)c2=O)OCO4)cc1,11.9%
6,COCCNC(=O)Cn1nc(C)c2c(C)n(-c3ccc(C)cc3)nc2c1=O,-9.61%
7,CCc1ccc2ncc3c(-c4ccccc4)nn(-c4ccccc4)c3c2c1,16.6%
8,CC(C)COc1ccc(C(=O)NCC2(N3CCN(C)CC3)CCCCC2)cc1,1.77%
9,COc1ccc(N(C(=O)c2ccc(OC)c(OC)c2)S(=O)(=O)c2ccc(Cl)cc2)cc1,-4.38%
10,Cc1cc(NS(=O)(=O)c2ccc(NC(=O)c3ccccc3C)cc2)nc(C)n1,10.6%
11,Cc1nc2scc(C)n2c(=O)c1S(=O)(=O)N1CCN(c2ccccc2)CC1,active: 31.8%
12,Cc1ccc(C)c(NC(=O)CC2NCCNC2=O)c1 (stereo unspecified),-5.59%
13,CCCc1cc(=O)[nH]c2nnc(SC(C)CC)n12 (stereo unspecified),21.2%
14,CCOC(=O)c1sc(NC(=O)/C=C/c2ccc(C(C)C)cc2)c(C(=O)OCC)c1C,0.272%
15,Cc1ccc2nc(N3CCN(c4cccc(C(F)(F)F)c4)CC3)c3nnnn3c2c1,-17.4%
16,CCc1cccc(C)c1NS(=O)(=O)c1cc2[nH]c(=O)c(=O)[nH]c2cc1C,-9.38%
17,CCN(CC)c1ccc(NC(=O)CCS(=O)(=O)c2cc3c(cc2Cl)NC(=O)CO3)c(C)c1,-1.32%
18,Cc1ccc2nc(-c3ccc(Cl)c(NC(=O)COc4cccc(C)c4C)c3)oc2c1,-21.8%
19,Cc1cccc(NC(=O)c2ccc3snnc3c2)c1,3.67%
20,CCN1CCOC(=O)C1CC(=O)Nc1cc(C)ccc1OC (stereo unspecified),14.4%
21,Cc1cc2c(cc1NS(=O)(=O)c1ccc(F)cc1)n(C)c(=O)c(=O)n2C,11.7%
22,COc1ccc(CCNC(=O)CCn2c(=O)c3ccccc3n(Cc3cc(C)ccc3C)c2=O)cc1OC,-18.1%
23,Cc1ccc(Cn2ccn(Cc3ccccc3F)c(=O)c2=O)cc1,-4.28%
24,COc1ccc(NC(=O)Cn2c(=O)n(CCC(=O)NCc3ccccc3OC)c(=O)c3ccccc32)cc1Cl,-3.42%

row,SMILES,inhibition
1,Cc1nc2c(-c3ccccc3)c(C)nn2c(C)c1CCC(=O)N1CCN(c2ccc(F)cc2)CC1,19.6%
2,COc1cccc(CNC(=O)CCc2c(C)nc3c(c(C)nn3-c3ccc(C)c(C)c3)c2C)c1,-20.1%
3,Cc1c(Cl)cccc1NC(=O)COCc1cc(-c2ccc3c(c2)OCO3)on1,-8.75%
4,CSc1ccc(CCNC(=O)c2ccc(-c3nc(COc4ccccc4)c(C)o3)cc2)cc1,-10.3%
5,Cc1cccc(N2CCN(CCCNc3ncnc4onc(-c5ccc(Cl)cc5)c34)CC2C)c1 (stereo unspecified),9.6%
6,Cc1cc(OCCn2cc(C(=O)c3cccs3)c3ccccc32)ccc1Cl,2.83%
7,O=C(Nc1ccc2nc(SCC(=O)N3CCOCC3)sc2c1)c1cccc(Cl)c1,-20%
8,Cc1c(C(=O)OCCOc2ccccc2)[nH]c2c1C(=O)CC(c1ccccc1)C2 (stereo unspecified),-2.89%
9,CC(=O)N1CCc2cc(CNC(=O)Cc3ccc(F)cc3)ccc21,-5.29%
10,CCOc1ccccc1CNC(=O)C1CCN(C(=O)N2CC(CC)Oc3ccc(C)cc32)CC1 (stereo unspecified),0.602%
11,COc1cccc(CNC(=O)C(=O)NCC(c2ccco2)S(=O)(=O)c2cccs2)c1 (stereo unspecified),2.68%
12,CC(C)(C)C(=O)Cn1c(=O)n(-c2ccc(Cl)cc2)c(=O)c2c3c(sc21)CCCC3,10.5%
13,O=C(/C=C/c1ccccc1)N1CCN(Cc2cc(=O)n3nc(-c4ccccc4F)sc3n2)CC1,5.32%
14,COc1ccc(N2CC(NC(=O)/C=C\c3ccccc3)CC2=O)cc1 (stereo unspecified),-12.9%
15,O=C(Cn1c(SCCOc2ccccc2)nc2ccccc21)N1CCOCC1,2.07%
16,COc1ccccc1N1CCN(C(=O)c2nc(SC)ncc2Cl)CC1,-6.32%
17,COc1ccc(C)cc1NC(=O)CCS(=O)(=O)c1cc2c3c(c1)CCN3C(=O)CC2,-3.03%
18,CCOc1ccc(Oc2nc(NCC(C)C)nc(N3CCOCC3)n2)nn1,1.29%
19,CCOC(=O)N1CCc2c(sc(NCc3sccc3C)c2C(=O)Nc2ccc(OC)cc2OC)C1,2.28%
20,CCCCCNC(=O)C1CC=CCC1C(=O)O (stereo unspecified),active: 36.1%
21,Cc1cc(C)cc(NC(=O)C(Cc2ccccc2)NS(=O)(=O)c2ccc3c(c2)c(=O)n(C)c(=O)n3C)c1 (stereo unspecified),7.57%
22,O=C(NCc1ccccc1CN1CCCC1)c1ccc(OCc2cscn2)cc1,active: 34.8%
23,Cc1ccc(CN2CCC(CNC(=O)Nc3ccc(Cl)cc3)C2)cc1 (stereo unspecified),-9.43%
24,CC(C)(C)OC(=O)N1CCC(c2c(C(=O)NCCN3CCc4ccccc4C3)cnn2-c2ccc(F)cc2F)CC1,-23.4%

row,SMILES,inhibition
1,Cc1ccc(-n2c(=O)c3cccnc3n2CC(=O)Nc2ccc(Br)cc2)cc1C,-14.7%
2,Cc1ccc(NC(=O)CCn2c(=O)c3cccn3c3ccccc32)cc1C,3.34%
3,CCC(=O)N1CCc2cc(Br)cc(S(=O)(=O)CCC(=O)NCCc3cccc(C)c3)c21,-12.3%
4,c1ccc(CCNc2cnccn2)cc1,active: 37.7%
5,C/C(CC(=O)Nc1ccccn1)=N\NC(=O)c1ccccc1O,active: 46.9%
6,Cc1cc(Cl)ccc1OCc1nc(-c2ccc(-n3cccc3)cc2)no1,-2.84%
7,Cc1c(C(=O)NCC(c2ccc(Cl)cc2)N2CCOCC2)oc2ccccc12 (stereo unspecified),-9.48%
8,CCCCOc1ccc(C(=O)Oc2cc(C)[nH]c(=O)c2[N+](=O)[O-])cc1,active: 77.1%
9,CCOc1ccc(N2CC(c3nc4ccccc4n3CCCOc3ccccc3)CC2=O)cc1 (stereo unspecified),6.16%
10,CCCCOC(=O)c1ccc(NC(=O)c2cc3c(=O)n4cccc(C)c4nc3s2)cc1,-10.6%
11,CCCCN(C)CCNC(=O)c1c2c(nc3ccccc13)C(=O)N(C1CCCCC1)C2,6.26%
12,CCOc1ccc(NC(=O)c2cnc(N3CCCC3)nc2C)cc1,-3.91%
13,COc1ccc(CNc2nc3c(-c4cccc(C)c4)nnn3c3ccccc23)cc1,12.6%
14,CCOc1ccc(CCNC(=O)c2cn(C)c3ccc(S(=O)(=O)N4CCCCCC4)cc3c2=O)cc1OCC,-5.06%
15,Cc1nn(CC(=O)N2CCC(C)CC2)c(=O)c2cc3sccc3n12,-6.75%
16,COc1ccc(NC2=NCC(=O)N2c2ccccc2F)cc1,active: 36.6%
17,COc1ccccc1NC(=O)c1c(NCc2ccc(OC)c(OC)c2OC)sc2c1CCC2,-2.54%
18,CCOC(=O)c1c(C)[nH]c(C)c1S(=O)(=O)N(C)CC(=O)N1CCN(c2ccccc2)CC1,3.07%
19,CC(C)c1ccc(NC(=O)Cn2cc(S(=O)(=O)N3CCN(c4ccccc4F)CC3)c3ccccc3c2=O)cc1,12.7%
20,Cc1ccc(CN(C(=O)COc2ccc([N+](=O)[O-])cc2)c2ccccn2)cc1,-10.8%
21,CCN(CC)CCCNC(=O)c1cnc(SC)nc1-c1ccccc1,9.8%
22,CCN(CC)CCCNC(=O)c1cn(C)c2ccc(S(=O)(=O)N(C)C3CCCCC3)cc2c1=O,8.22%
23,CCOCCc1nn2c(=O)cc(COC(=O)CNC(=O)c3cccc(C)c3)nc2s1,-12.5%
24,Cc1ccc2c(=O)cc(C(=O)Nc3nc4ccc(Cl)cc4s3)oc2c1C,14.8%

row,SMILES,inhibition
1,CCN(C(=O)CSc1nc2ncccc2[nH]1)c1ccc(C(C)C)cc1,1.09%
2,COc1cccc(-c2ncnn2-c2sc3c(c2C#N)CCCCC3)c1OC,14.8%
3,O=C(COc1ccc(Cl)cc1)Nc1nnc(S(=O)(=O)N2CCc3ccccc32)s1,16.7%
4,CC1=C(C#N)C(NC(=O)c2ccccc2Cl)(C(F)(F)F)C(=O)N1 (stereo unspecified),-13.6%
5,CCc1ccc(NC(=O)c2sc3nc(C)c(Cl)c(C)c3c2NC(=O)c2ccccc2OC)cc1,-2.01%
6,COc1ccc(OC)c(NC(=O)C2=C(C)C(=O)OC23CCCCCC3)c1,-6.22%
7,Cc1ccc(S(=O)(=O)c2nnn3c2nc(N2CCN(c4ccccc4F)CC2)c2cc(Cl)ccc23)cc1C,3.48%
8,O=C(c1ccc2c(c1)N(Cc1cccc(F)c1)C(=O)c1ccccc1S2)N1CCOCC1,-5.3%
9,COc1ccc(/C=C/C(=O)Nc2ccc3nc4c(c(Nc5ccccc5OC)c3c2)CCCC4)cc1,11%
10,Cc1ccccc1CN1C(=O)c2ccccc2S(=O)c2ccc(C(=O)NC3CCC(C)CC3)cc21 (stereo unspecified),12.4%
11,Cc1ccc(S(=O)(=O)c2nnn3c2nc(N2CCCC2)c2sccc23)cc1C,14.8%
12,Cc1cc(C)n(CCc2nc3c4ccccc4nc(N4CCN(c5ccccc5)CC4)n3n2)n1,-14.3%
13,COc1cccc(CNC(=O)C2CCCCN2S(=O)(=O)c2ccc(F)cc2)c1 (stereo unspecified),15.1%
14,CCOC(=O)C1(C)C=C(Nc2cccc(C(=O)O)c2)C(=O)N1c1cccc(C(=O)O)c1 (stereo unspecified),-4.66%
15,CCCNCC1COc2ccccc2O1 (stereo unspecified),active: 32.5%
16,COc1ccc(-c2noc(-c3ccc(N4CCN(c5ccccc5)CC4)c([N+](=O)[O-])c3)n2)cc1OC,-9.38%
17,Cc1cc(F)ccc1NS(=O)(=O)c1ccc(-n2cccn2)cc1,5.6%
18,Cc1ccc(CNS(=O)(=O)c2ccc3[nH]c4c(c3c2)CCCC4)cc1,17.9%
19,CCCCc1nn2c(=O)cc(COC(=O)c3ccc(NC(=O)c4ccccc4C)cc3)nc2s1,1.81%
20,O=C1CS(=O)(=O)C2(C(=O)N(Cc3ccccc3)c3ccccc32)N1c1ccccc1 (stereo unspecified),-14.2%
21,COc1cc2c(cc1OC)C(COc1ccccc1OC)N(C(=O)COc1ccc(Cl)cc1)CC2 (stereo unspecified),5.64%
22,Cc1ccc(CCNC(=O)c2ccc3c(c2)nc2n3CCC(C)C2)cc1 (stereo unspecified),1.22%
23,O=C(C1CCN(c2ncnc3c2nc2n3CCCCC2)CC1)N1CCN(c2cccc(Cl)c2)CC1,4.67%
24,COc1ccc(OC)c(CNC(=O)Cc2ccc(NC(=O)N3CCSc4ncccc43)cc2)c1,-8.52%
